Results as given in patent publication US10300036B2, “Compositions and methods for treating and preventing lung injury” (ARIZONA BOARD OF REGENTS on behalf of THE UNIVERSITY OF …, priority 2015, dated 2019).

System: NRF2 transcriptional activity
[1] = H1299, 16 h, SF 5 μM, tBHQ 50 μM, As(III) 5 μM, bixin 40 μM

Compound | NRF2 transcriptional activity, KEAP1-C151S cells [1] | NRF2 transcriptional activity, KEAP1-WT cells [1] | NRF2 transcriptional activity, KEAP1-WT cells
C[S+]([O-])CCCCN=C=S (stereo not shown) [SF, sulforaphane] | inhibited | enhanced | –
COC(=O)/C=C/C(C)=C\C=C\C(C)=C\C=C\C=C(C)\C=C\C=C(C)\C=C\C(=O)O [bixin, Bixin] | inhibited | enhanced | –
CC(C)(C)c1cc(O)ccc1O [tBHQ, tert-butylhydroquinone] | inhibited | enhanced | –
sodium arsenite [As(III)] | – | – | enhanced

Like-named read-outs stand apart in the source and are kept apart here.
